Assay results as given in PubChem BioAssay AID2112 (National Center for Advancing Translational Sciences (NCATS), 2009).
Screen size: about 240,000 compounds; about 15 (0.006%) were called active. Inconclusive results, whose numbers are uncertain, are shown with a selection of clear calls. Calls come from the whole dose curve; as a rule, active = well fitted inhibition curve with a large enough effect; inconclusive = small, poorly fitted or top-dose-only effect, or effect the other way, or another doubt; inactive = no such curve, though single readings can be large or run the other way. No potency is given beside an inconclusive call; the fits are too rough.

target: Lysosomal alpha-glucosidase (Homo sapiens) (UniProt P10253); test: qHTS Assay for Inhibitors and Activators of Human alpha-Glucosidase From Spleen Homogenate; settings: 4-MU-alpha-glucoside fluorescence; series mostly up to 79.9 µM;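 for activity change, negative = inhibition: 0% = enzyme with vehicle and -100% = no enzyme basal signal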
Method in brief: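 Human spleen homogenate (1 ug) incubated with compounds and 1 mM 4-methylumbelliferyl-alpha-D-glucopyranoside in pH 5.0 citrate/phosphate buffer, 37 C, 40 min. Stopped at pH 10; 4-MU fluorescence (Ex 365/Em 440 nm); AC50 by Hill fit.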
Potency is the fitted concentration of half-maximal effect; tags give direction and shape of the fitted curve.

| Compound | Potency | activity change, negative = inhibition |
| --- | --- | --- |
| CCC(=O)N1N=C(c2ccc(NS(C)(=O)=O)cc2)CC1c1ccc(C)cc1 (stereo unspecified) | inconclusive [activator, single point] |  |
| COc1ccc(Cl)cc1-c1ccc(C(=O)O)s1 | inactive |  |
| COc1ccc(C2C(C(=O)N3CCOCC3)=C(C)NC3=C2C(=O)CC(C)(C)C3)c(OC)c1 (stereo unspecified) | inconclusive [activator, single point] |  |
| O=c1ccc2cc(O[C@H]3OC(CO)C(O)C(O)C3O)c(O)cc2o1 (stereo partly specified) | inconclusive [activator, partial curve] |  |
| C[C@@H](c1ccccc1)N1C(=O)[C@H]2[C@H]3[C@H](O)[C@H](O)C/C(=N/NC(=O)OCc4ccccc4)[C@@H]3CC[C@@H]2C1=O |  | inactive: -2.04% [at 17.4 µM] |
| CCOC(=O)CSc1nc(-c2ccc3c(c2)OCO3)ccc1C#N | inconclusive [activator, single point] |  |
| C[C@@H]1C(=O)N(S(=O)(=O)c2ccccc2[N+](=O)[O-])[C@H]1c1ccc(-c2ccccc2)cc1 | inactive |  |
| O=c1c(-c2cccs2)nc2cnc(N3CCNCC3)nc2n1Cc1cccs1 | inactive |  |
| O=C(c1nc2ccccn2c1CNCCn1ccc2ccccc21)N1CCOCC1 | inactive |  |
| COC(=O)[C@@]1(Cc2ccc(F)cc2)[C@H]2c3cc(C(=O)N(C)C)n(Cc4ccccc4)c3C[C@H]2CN1C(=O)c1ccccc1 | inactive |  |
| COP(=O)(OC)c1nc(-c2cccc3ccccc23)oc1N1CCCCC1 | inconclusive [activator, partial curve] |  |
| C[C@H](CCC(=O)NCC(=O)O)C1CC[C@H]2C3CC[C@@H]4C[C@H](O)CC[C@]4(C)C3C[C@H](O)[C@]12C (stereo partly specified) | inactive |  |
| CCCCN(C)C(=O)CCC(=O)Nc1ccc2nc(N3CCOCC3)cc(C)c2c1 | inconclusive [activator, single point] |  |
| O=S1(=O)CCN2C=C(Cl)C=C(Cl)C2=N1 | inconclusive [activator, single point] |  |
| CCOc1cccc(C(=O)c2ccc(O)c(O)c2O)c1 | inactive |  |
| CCc1ccc(NC(=O)c2noc(C(C)C)c2[N+](=O)[O-])cc1 | inconclusive [inhibitor, full curve, poor fit] |  |
| COc1ccc(CCNC(=O)c2nonc2N)cc1 | inconclusive [inhibitor, full curve, poor fit] |  |
| O=C(c1cc2c(=O)n3ccccc3nc2s1)N1CCc2ccccc2C1 | inconclusive [activator, single point] |  |
| COc1ccc(OC)c(S(=O)(=O)Nc2ccc(O)c3ccccc23)c1 | inactive |  |
| N#Cc1cc2c(=O)n3ccccc3nc2n(-c2ccccc2Cl)c1=O | inconclusive [activator, partial curve] |  |
| CCOC(=O)c1cc2ccc(OC)cc2oc1=O | inconclusive [activator, single point] |  |
| Cc1ccc(C(=O)C(C)OC(=O)c2ccccc2[N+](=O)[O-])cc1 (stereo unspecified) | inconclusive [inhibitor, full curve, poor fit] |  |

| Compound | Potency | activity change, negative = inhibition |
| --- | --- | --- |
| CC(C)(C)OC(=O)NCCC(=O)Oc1ccc2ccc(=O)oc2c1 | inconclusive [activator, partial curve] |  |
| COc1ccc(NC(=S)NNc2ccc(S(=O)(=O)Nc3ccccc3C(=O)O)cc2[N+](=O)[O-])cc1 | inactive |  |
| C=CCNC(=O)COc1ccc(Oc2ccccc2)cc1 | inconclusive [inhibitor, single point] |  |
| COCCCn1c(N)c(C(=O)NCc2ccco2)c2nc3ccccc3nc21 | inconclusive [activator, single point] |  |
| CCOC(=O)c1cnn2c(C(F)(F)F)cc(-c3ccco3)nc12 | inactive |  |
| O=c1oc2cc(O)ccc2c2c1CCCC2 | inconclusive [activator, partial curve] |  |
| Clc1ccc(-c2nc3cnccn3c2Nc2ccc3c(c2)OCO3)cc1 | inactive |  |
| COc1ccc(OC2C(O)COC2/C=C/C#Cc2ccccc2)cc1 (stereo unspecified) |  | inactive: -0.956% [at 17.4 µM] |
| COc1ccc(N2C3=C(C(=O)CC(C)(C)C3)C(c3cnn(C)c3)C3=C2CC(C)(C)CC3=O)cc1 | inconclusive [activator, partial curve] |  |
| COC(=O)c1[nH]c2ccc(C)cc2c1NS(=O)(=O)c1ccc(F)cc1 | inactive |  |
| CSCC[C@H](NC(=O)[C@H](CO)NC(=O)[C@H](Cc1ccc(O)cc1)NC(=O)[C@@H](N)CO)C(=O)N[C@@H](CCC(=O)O)C(=O)N[C@@H](Cc1cnc[nH]1)C(=O)N[C@@H](Cc1ccccc1)C(=O)N[C@@H](CCCNC(=N)N)C(=O)N[C@@H](Cc1c[nH]c2ccccc12)C(=O)NCC(=O)N[C@@H](CCCCN)C(=O)N1CCC[C@H]1C(=O)N[C@H](C(=O)NCC(=O)N[C@@H](CCCCN)C(=O)N[C@@H](CCCCN)C(=O)N[C@@H](CCCNC(=N)N)C(=O)N[C@@H](CCCNC(=N)N)C(=O)N1CCC[C@H]1C(=O)N[C@H](C(=O)N[C@@H](CCCCN)C(=O)N[C@H](C(=O)N[C@@H](Cc1ccc(O)cc1)C(=O)N1CCC[C@H]1C(=O)O)C(C)C)C(C)C)C(C)C | inactive |  |
| O=C1C=C(Nc2ccccc2O)c2ccccc2C1=O | inconclusive [inhibitor, full curve, poor fit] |  |
| CC1CCN(CCCNC(=O)c2coc3nc4ccccc4nc23)CC1 | inconclusive [activator, single point] |  |
| CCOC(=O)CC(SP(=O)(OC)OC)C(=O)OCC (stereo unspecified) | inactive |  |
| Cc1ccc(Nc2nnc(-c3ccccc3N)o2)cc1C | inconclusive [activator, partial curve] |  |
| Cc1c(C(=O)N(C)C2CCCCC2)sc2nc3ccc(N)cc3n12 | inactive |  |
| BrC1C(Br)C(Br)C(Br)C(Br)C1Br (stereo unspecified) | inactive |  |
| O=C(N/N=C/c1c(Cl)cccc1Cl)c1ccc(F)cc1 | inactive |  |
| FC(F)(F)c1cccc(NC(=S)NCc2ccccn2)c1 | inactive |  |
| CCc1cc(=O)oc2c(CN3CCN(C)CC3)c(O)c(Cl)cc12 | inconclusive [activator, single point] |  |
| CC1CN(Cc2cnc(Cl)s2)CC(C)O1 (stereo unspecified) | inconclusive [inhibitor, partial curve] |  |
| O=C(CCl)Nc1cccc(CP(=O)(c2ccccc2)c2ccccc2)c1 | inactive |  |

| Compound | Potency | activity change, negative = inhibition |
| --- | --- | --- |
| Cc1ccc(-c2cc(C(=O)N3CCN(c4ccc(F)cc4)CC3)c3ccccc3n2)o1 | inactive |  |
| N#Cc1nc(/C=C/c2ccccc2)oc1NCCCN1CCOCC1 | inconclusive [activator, partial curve] |  |
| O=c1oc2c(CN3CCCCC3)c(O)ccc2c2c1CCCC2 | inconclusive [activator, partial curve] |  |
| COc1ccccc1C1CN(c2ccc(F)cc2F)N=C1c1cccs1 (stereo unspecified) | inconclusive [activator, partial curve] |  |
| Cc1[nH]nc(SCC(=O)Nc2cccc(O)c2)c1[N+](=O)[O-] | inactive |  |
| N#C/C(=C(/O)CCCl)c1ccccn1 | inconclusive [activator, partial curve] |  |
| CCOCC(=O)Nc1ccc(-c2cn3cccnc3n2)cc1 | inconclusive [activator, partial curve] |  |
| CCOC(=O)CC1C(=O)NCCN1C(=O)c1cc2c(=O)n3cccc(C)c3nc2s1 (stereo unspecified) | inconclusive [activator, single point] |  |
| CCc1cc2c(C)cc(=O)oc2cc1OC(=O)C1CCCN1C(=O)OC(C)(C)C (stereo unspecified) | inconclusive [activator, partial curve] |  |
| Cc1cc(/C=N/NC(=O)Cn2c3ccccc3c(=O)c3ccccc32)c(C)n1-c1ccccc1 | inconclusive [activator, single point] |  |
| CC(C)CN(Cc1c(O)ccc2c3c(c(=O)oc12)CCC3)CC(C)C | inconclusive [activator, partial curve] |  |
| COCCNC(=O)c1c(N)n(CCCn2ccnc2)c2nc3ccccc3nc12 | inconclusive [activator, single point] |  |
| COCCN1C=C(C(=O)OC)C(c2cc(Br)c(OC)c(OC)c2)C(C(=O)OC)=C1 | inconclusive [activator, partial curve] |  |
| CCOC(=O)COc1ccc2cc(C(=O)OCC)c(=O)oc2c1 | inconclusive [activator, partial curve] |  |
| COc1cc(-c2cn[nH]c2N)cc(OC)c1OC | inconclusive [inhibitor, partial curve] |  |
| O=C(NCc1ccco1)c1cc2ccc(O)cc2oc1=O | inconclusive [activator, partial curve] |  |
| COCC(=O)Nc1ccc(-c2cn3cccnc3n2)cc1 | inconclusive [activator, partial curve] |  |
| O=C(Oc1c(CN2CCOCC2)cc(Cl)c2cccnc12)c1ccccc1Cl | inactive |  |
| [O-]/C(=C(\C(=S)NCCN1CCOCC1)[n+]1ccccc1)c1ccc(Cl)s1 | inconclusive [inhibitor, single point] |  |
| CC(=O)Nc1c(OC(C)=O)ccc2c(C)cc(=O)oc12 | inconclusive [activator, partial curve] |  |
| O=c1oc2c(CN3CCCCC3)c(O)ccc2c2c1CCCCC2 | inconclusive [activator, partial curve] |  |
| COC(=O)C1=CN(C)C=C(C(=O)OC)C1c1ccsc1 | inconclusive [activator, single point] |  |
